48 compounds from PubChem BioAssay AID1508642 (National Center for Advancing Translational Sciences (NCATS), 2021) can be followed below.

Out of some 43,000 compounds screened, about 200 (0.47%) were called active. Not shown: some 12% with an inconclusive outcome. Calls come from the whole dose curve; as a rule, active = well fitted cell-killing curve with a large enough effect; inconclusive = small, poorly fitted or top-dose-only effect, or effect the other way; inactive = flat fitted curve, though single readings scatter. The list shows a part of the results.
% is set by controls: 0 for no effect and ±100 for the full control effect; potency is the fitted concentration of half-maximal effect.

This assay can be described thus: Cell viability qHTS assay in S16 Pmp22-F2sN cells. Note: nearly all actives have a fitted effect of over 65% in size. Conditions: S16 Pmp22-F2sN Schwann cells viability, CellTiter-Glo, 24 h; series mostly up to 57.5 µM; activity change, negative = cytotoxicity: at the top concentration. Put shortly: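 S16 Pmp22-F2sN Schwann cells (500-1,000/well) in phenol-red-free DMEM with 10% FBS received 23 nL compound by pin tool for 24 h at 37 °C. Viability was then read as CellTiter-Glo luminescence after 15 min at room temperature.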
For orientation: Quantitative high-throughput screening tests each substance at several concentrations.
Turning to `CCCCOc1cccc(C(=O)Nc2cc(NC(=O)c3ccco3)ccc2OC)c1`, the “activity change, negative = cytotoxicity” value is inactive: -3.56%.

In the case of `CCc1ccc(CN2CCc3nc(N4CCN(c5ccccc5F)CC4)ncc3C2)cc1`, the “activity change, negative = cytotoxicity” value is inactive: -23%.

`C#CCOc1ccc(-c2nnc(Nc3ccc(NC(C)=O)cc3)c3ccccc23)cc1`: the “activity change, negative = cytotoxicity” value was inactive: 7.12%.

With `COc1cccc2c1ncc1c(-c3ccc(C)cc3)nn(-c3ccc(F)cc3)c12`, the “activity change, negative = cytotoxicity” value was inactive: 2.51%.

Consider `CC(C)COc1ccc(C(=O)N2CCCCC2CCN2CCCCC2)cc1` (stereo not drawn), for which the “activity change, negative = cytotoxicity” value is inactive: 0.254%.

For `COc1ccc(CCNC(=O)c2cnn(-c3cccc(C)c3)c2C2CCN(C(=O)OC(C)(C)C)CC2)cc1OC`, the “activity change, negative = cytotoxicity” value is inactive: -2.2%.

On to `CC(=O)c1ccc(NC(=O)c2noc3c2CSc2ccccc2-3)cc1`, for which the “activity change, negative = cytotoxicity” value is inactive: 17%.

In the case of `O=C(NCCN1CCN(c2cccc(Cl)c2)CC1)Nc1ccccc1C(F)(F)F`, the “activity change, negative = cytotoxicity” value is inactive: -12.7%.

In the case of `Cc1ccc(CNc2nc(-c3ccco3)nn2S(=O)(=O)c2ccc3ccccc3c2)cc1`, the “activity change, negative = cytotoxicity” value is inactive: -19.7%.

In the case of `O=C(CSc1ncc(-c2ccccc2)[nH]1)Nc1ccc(Cl)cc1`, the “activity change, negative = cytotoxicity” value was inactive: 1.66%.

As to `CSc1ncc(C(=O)N2CCN(c3cccc(Cl)c3)CC2)c(C)n1`, the “activity change, negative = cytotoxicity” value is inactive: -0.848%.

Take `O=C(CCCn1c(=O)c2cccn2c2cccnc21)NCc1ccccc1Br`: the “activity change, negative = cytotoxicity” value is inactive: -1.59%.

For `O=C(CC1C(=O)N(c2ccccc2)C(=O)N1CCc1cccs1)Nc1ccc(F)cc1` (stereo not drawn), the “activity change, negative = cytotoxicity” value was inactive: -17.5%.

As for `CCOc1ccc(CCNC(=O)Cn2nnc(-c3ccccc3Cl)n2)cc1OCC`, the “activity change, negative = cytotoxicity” value is inactive: 5.72%.

Take `Cc1c(C)n(Cc2ccc(F)cc2)c2ccc(C(=O)NCc3ccco3)cc12`: the “activity change, negative = cytotoxicity” value was inactive: -2.81%.

With `O=C(Cn1c(=O)nc(-c2ccccc2)c2cc(Cl)ccc21)N1CCN(c2ccccc2F)CC1`, the “activity change, negative = cytotoxicity” value was inactive: 11.6%.

Turning to `COc1ccc(Cl)cc1NC(=O)CN1C(=O)C(C)(C)c2cc(S(=O)(=O)N3CCCCC3)ccc21`, the “activity change, negative = cytotoxicity” value is inactive: -1.91%.

On to `Cc1ccccc1CNC(=O)c1oc2c(c1C)-c1[nH]ncc1CC2`, for which the “activity change, negative = cytotoxicity” value was inactive: 2.17%.

Turning to `Cc1ccc2nc(Cl)c3cc(C(=O)N4CCCCC4C)sc3c2c1` (stereo not drawn), the “activity change, negative = cytotoxicity” value is inactive: 8.3%.

For `Cc1cn(C)c(CC(=O)NCc2ccccc2)c1C(=O)O`, the “activity change, negative = cytotoxicity” value is inactive: 3.6%.

Regarding `Cc1ccsc1CN(C(=O)c1oc2ccc(Br)cc2c1C)C1CCS(=O)(=O)C1` (stereo not drawn), the “activity change, negative = cytotoxicity” value was inactive: -28.5%.

With `CCOc1ccc(C2c3c(oc4ccc(C)cc4c3=O)C(=O)N2CCCN2CCOCC2)cc1` (stereo not drawn), the “activity change, negative = cytotoxicity” value is inactive: -6.91%.

`CCN1c2ccccc2-c2nc(SCC(=O)NCc3ccc(Cl)cc3)ncc2S1(=O)=O`: the “activity change, negative = cytotoxicity” value was inactive: -5.34%.

With `Cc1cccc(-n2ncc(C(=O)N3CCN(c4ccc(C)cc4C)CC3)c2C2CCN(C(=O)OC(C)(C)C)CC2)c1`, the “activity change, negative = cytotoxicity” value was inactive: 22.7%.

In the case of `Cc1cc(N2CCN(C)CC2)nc2ccc(NC(=O)Nc3cccc(Cl)c3)cc12`, the Potency is active: 25.1 µM.

Consider `Cc1cccc(-n2ncc(C(=O)NCc3ccccn3)c2C2CCN(C(=O)OC(C)(C)C)CC2)c1`, for which the “activity change, negative = cytotoxicity” value is inactive: -4.75%.

Consider `CCN1CCN(Cc2c(O)ccc3c(C)c(-c4ccccc4)c(=O)oc23)CC1`, for which the “activity change, negative = cytotoxicity” value was inactive: -18.7%.

In the case of `CCOC(=O)N1CCC2(CC1)OC(=O)C(C)=C2C(=O)NCc1cccc(OC)c1`, the “activity change, negative = cytotoxicity” value was inactive: -0.541%.

Take `Cn1c(=O)n(-c2cccc(Cl)c2)c(=O)c2sc3ccccc3c21`: the “activity change, negative = cytotoxicity” value was inactive: 8.64%.

With `Cc1cc(NC(=O)Cn2nc(C)n3cccc3c2=O)ccc1Br`, the “activity change, negative = cytotoxicity” value is inactive: 14.3%.

With `CCCS(=O)(=O)N1CC(=O)N(c2ccccc2C)C(C)(C(=O)NC2CCCC2)C1` (stereo not drawn), the “activity change, negative = cytotoxicity” value is inactive: 7.01%.

Regarding `CNC(=O)c1sc2ncccc2c1-n1cccc1`, the “activity change, negative = cytotoxicity” value was inactive: -8.34%.

`Cc1ccc(NC(=O)Cn2c(=O)n(CCC(=O)NCc3ccc4c(c3)OCO4)c(=O)c3sccc32)c(C)c1`: the “activity change, negative = cytotoxicity” value was inactive: 4.12%.

As to `Cc1ccc(C)c(N2CCN(c3nc4ccccc4n4c(C)nnc34)CC2)c1`, the “activity change, negative = cytotoxicity” value is inactive: -13.1%.

Turning to `Cc1ccc(NC(=O)C(c2ccccc2)N2Cc3ccccc3C2=O)cc1Cl` (stereo not drawn), the “activity change, negative = cytotoxicity” value is inactive: 10.6%.

On to `O=C(CSc1nc2c(c(=O)[nH]1)CCCC2)Nc1ccc(Br)cc1`, for which the “activity change, negative = cytotoxicity” value is inactive: -11.9%.

As to `CC(C)(C)OC(=O)N1CCC(c2c(C(=O)Nc3ccc4c(c3)OCCO4)cnn2-c2ccccc2)CC1`, the “activity change, negative = cytotoxicity” value was inactive: -8.98%.

For `CCc1ccc(NC(=O)c2nn(-c3ccc(C)cc3)c(=O)n(C)c2=O)cc1`, the “activity change, negative = cytotoxicity” value was inactive: 9.79%.

On to `CCc1ccccc1NC(=O)CN1C(=O)c2cccnc2Oc2ccc(Cl)cc21`, for which the “activity change, negative = cytotoxicity” value was inactive: 3.72%.

`CCOc1ccc(Br)cc1CNCCSc1nnnn1-c1ccccc1`: the “activity change, negative = cytotoxicity” value was inactive: -6.67%.

Regarding `COc1ccc(CNC(=O)c2cc3c(s2)-c2c(C)cccc2OC3)cc1`, the “activity change, negative = cytotoxicity” value is inactive: -12.6%.

`CCOC(=O)c1oc2c(c1C)-c1nn(Cc3ccccc3Cl)cc1CC2`: the “activity change, negative = cytotoxicity” value is inactive: -30%.

Take `Cc1ccc(C)c(NC(=O)C(=O)NCCc2csc3nc(-c4ccccc4C)nn23)c1`: the “activity change, negative = cytotoxicity” value is inactive: -9.3%.

Turning to `COC(=O)NCc1c(C)nn(-c2ccccc2)c1-n1cccc1`, the “activity change, negative = cytotoxicity” value was inactive: 0.0575%.

Take `Cc1cc2c(cc1C)NC(CC(=O)Nc1ccccc1SC(F)(F)F)C(=O)N2` (stereo not drawn): the “activity change, negative = cytotoxicity” value was inactive: 1.09%.

Turning to `CCCCOc1ccc(NC(=O)Cn2nnnc2-c2ccccc2F)cc1`, the “activity change, negative = cytotoxicity” value was inactive: -0.977%.

Regarding `O=C(COCc1cc(-c2cccs2)on1)Nc1ccc(OC(F)(F)F)cc1`, the “activity change, negative = cytotoxicity” value was inactive: -7.94%.

On to `Cc1ccc(S(=O)(=O)c2nc(-c3ccco3)oc2SCC(C)C)cc1`, for which the “activity change, negative = cytotoxicity” value is inactive: -17.1%.
